Out of some 310,000 compounds screened, about 2,200 (0.71%) showed an effect of 50% or more. Effects have a minus sign here. Some of the results follow.

The test deals with human ether-à-go-go-related gene (hERG) potassium channel (human, UniProt Q12809). Description: primary screen, population patch clamp on CHO cells stably expressing hERG.
Chain of human ether-à-go-go-related gene (hERG) potassium channel (Q12809 whole entry, looked up): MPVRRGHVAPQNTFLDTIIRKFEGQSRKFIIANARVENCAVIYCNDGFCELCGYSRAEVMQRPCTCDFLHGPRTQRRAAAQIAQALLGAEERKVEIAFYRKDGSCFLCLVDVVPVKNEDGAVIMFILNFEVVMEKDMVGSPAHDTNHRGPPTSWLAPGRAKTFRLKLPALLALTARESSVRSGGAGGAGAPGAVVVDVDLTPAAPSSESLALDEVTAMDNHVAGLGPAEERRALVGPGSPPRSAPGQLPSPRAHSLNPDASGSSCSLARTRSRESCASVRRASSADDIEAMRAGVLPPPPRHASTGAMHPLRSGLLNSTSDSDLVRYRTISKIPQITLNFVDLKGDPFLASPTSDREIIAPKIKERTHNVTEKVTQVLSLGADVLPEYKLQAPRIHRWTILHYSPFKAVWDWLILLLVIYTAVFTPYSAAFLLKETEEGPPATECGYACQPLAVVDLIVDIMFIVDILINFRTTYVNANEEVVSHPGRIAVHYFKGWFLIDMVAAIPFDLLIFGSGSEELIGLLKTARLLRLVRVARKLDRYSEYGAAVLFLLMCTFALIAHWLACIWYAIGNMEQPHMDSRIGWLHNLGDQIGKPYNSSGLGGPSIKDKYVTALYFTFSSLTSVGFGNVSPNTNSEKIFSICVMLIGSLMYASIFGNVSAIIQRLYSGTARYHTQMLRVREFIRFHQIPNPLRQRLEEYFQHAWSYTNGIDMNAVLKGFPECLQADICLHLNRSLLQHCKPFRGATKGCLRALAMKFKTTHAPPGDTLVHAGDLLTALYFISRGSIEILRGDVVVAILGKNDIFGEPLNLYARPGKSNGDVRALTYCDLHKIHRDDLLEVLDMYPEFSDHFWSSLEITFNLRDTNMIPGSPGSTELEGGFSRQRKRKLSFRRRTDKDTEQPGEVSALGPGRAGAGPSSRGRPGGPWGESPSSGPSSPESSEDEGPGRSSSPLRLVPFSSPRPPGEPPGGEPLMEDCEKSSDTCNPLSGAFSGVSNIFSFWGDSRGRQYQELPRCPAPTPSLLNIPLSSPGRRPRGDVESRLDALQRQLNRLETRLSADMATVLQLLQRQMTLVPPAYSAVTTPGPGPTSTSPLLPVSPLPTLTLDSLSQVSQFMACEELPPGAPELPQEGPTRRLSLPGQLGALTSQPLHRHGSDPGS
For the molecule `COCCNc1nc2ccccc2nc1NS(=O)(=O)c1ccc(C)cc1C`, the “hERG current change (%, negative = inhibition) at 1uM” value stood at 10.6%.

Consider `CCCc1cc(C(=O)Nc2ccc(C)cc2)no1`, for which the “hERG current change (%, negative = inhibition) at 1uM” value worked out at 1.49%. In the case of `COc1ccc(C2CC(=O)NC(=O)C2)cc1` it was 17.4%; in that of `CCC(=O)c1ccc(OCC(=O)O)c(OC)c1`, 8.14%; in that of `CN(CC(=O)Nc1ccc(F)cc1)C(=O)COC(=O)C1CCN(c2ccc(C(F)(F)F)cn2)CC1`, -37.3%. As for `CC1=C(CCN2CCN(C(C)C)C(CCO)C2)C(C)(C)CCC1` (centres unmarked), the figure is 6.4%. As for `O=C(NC1CCCC1)C1CCN(C(=O)c2cc(Cl)ccc2Cl)CC1`, the figure is 6.24%; as for `O=C1CC2(CCCCC2)Oc2ccccc21`, 14.7%; as for `CCN=C1SC(C(=O)NCCc2ccccc2)CC(=O)N1CC` (centres unmarked), 3.92%.

For the molecule `CCOC(=O)c1cccc(NC(=O)Nc2cc(OC)ccc2OC)c1`, the “hERG current change (%, negative = inhibition) at 1uM” value came out at 9.51%. In the case of `O=C(CN1CCN(c2ccc(O)cc2)CC1)N1CCc2ccccc21` it was 15.9%. In the case of `CCNS(=O)(=O)c1ccc(NC(=O)c2ccccc2SCCOC)cc1` it was 6.03%. As for `CC1CCCN(C(=O)CCl)C1` (centres unmarked), the figure is 12.8%; as for `COC(=O)Nc1ccc(OCc2ccccc2)cc1`, 0.595%; as for `CCOC(=O)c1[nH]c2c(c1C)C(=O)CC(c1ccc(N(C)C)cc1)C2` (centres unmarked), -8.28%. `COc1cc([N+](=O)[O-])cc(/C=N/NC(=O)c2ccc(C)nc2)c1O`: the “hERG current change (%, negative = inhibition) at 1uM” value is 12.9%. As to `CCN(CC)CCNCc1ccc(Br)cc1OCC(=O)NCc1ccccc1.Cl`, the “hERG current change (%, negative = inhibition) at 1uM” value was -7.7%. In the case of `Nc1ccccc1Sc1ccc(C(=O)c2ccccc2C(=O)O)cc1[N+](=O)[O-]` it was 5.16%; in that of `CC/C(=N\Nc1ccccc1)c1c(O)n(-c2ccccc2)c(=O)[nH]c1=O`, 11.9%; in that of `Cc1ccccc1NC(=O)c1cc2ccccc2o1`, 14.7%. In the case of `COc1cccc(OC)c1C(=O)Nc1ccccc1C(=O)N1CCCC1` it was -3.78%; in that of `CN(CC(=O)Nc1cccc(F)c1)CC(=O)Nc1cccc(S(=O)(=O)N2CCCCCC2)c1`, 5.75%. As for `CN(C)CCOCCSc1ccc(Cl)cc1.O=C(O)C(=O)O`, the figure is 1.04%. `O=C(O)c1ccc(-c2ccccn2)s1`: the “hERG current change (%, negative = inhibition) at 1uM” value is 0.95%. As for `COc1cc(O)c(C(CCN2CCCC(C)C2)c2cc(OC)c(OC)c(OC)c2)c(OC)c1` (centres unmarked), the figure is 6.98%; as for `CCCCCn1c(=O)c(C(=O)Nc2cccc(C)c2)c(O)c2ccccc21`, 14%; as for `COc1ccc(-n2c(N)c(C(=O)NCc3cccnc3)sc2=S)cc1`, 10.8%. As for `Cc1ccc(Nc2cc(C)nn2-c2nc(C)cc(C)n2)cc1`, the figure is 10.8%; as for `Cc1ccc(SCCC(=O)NC(C(C)C)C(C)C)cc1`, -4.77%; as for `CCOC(=O)c1sc(NC(=O)CSc2nccn2C)nc1C`, 2.36%.

Consider `CCOC(=O)CC1CCCCN1C(=O)CCCn1nnnc1CN1CCC(C)CC1` (centres unmarked), for which the “hERG current change (%, negative = inhibition) at 1uM” value is 11.9%.

Regarding `CC(C)CN(C(=O)c1nn(C)c(=O)c2ccccc12)c1nc2ccccc2s1`, the “hERG current change (%, negative = inhibition) at 1uM” value is given as 5.33%. In the case of `CC(=O)[C@@H]1[C@@H]2C(=O)N(Cc3ccccc3)C(=O)[C@@H]2C2c3ccccc3C=CN21` (some centres unmarked), the “hERG current change (%, negative = inhibition) at 1uM” value is 12.9%.

For the molecule `Nc1ncncc1-c1ccc2ccccc2c1`, the “hERG current change (%, negative = inhibition) at 1uM” value is recorded as 13.9%. As for `CCCCNS(=O)(=O)c1ccc(OC)c(Cl)c1Cl`, the figure is -2%.

Turning to `COCCCNC(=O)c1c(-c2ccccc2)noc1C`, the “hERG current change (%, negative = inhibition) at 1uM” value stood at 12.9%.

Regarding `O=C(Nc1ccc(F)cc1F)Nc1ccccc1C(=O)NCCN1CCNC1=O`, the “hERG current change (%, negative = inhibition) at 1uM” value came out at 14%. In the case of `Cc1ccc(CSC2=NCCN2C(=O)c2ccco2)cc1` it was 3%; in that of `CS(=O)(=O)N(CC(=O)N1CCCCCC1)c1cccc(Cl)c1Cl`, 14%; in that of `O=C1NC2=C(CCc3ccccc32)C(c2ccccc2)N1` (centres unmarked), 6.7%. In the case of `Cc1ccc(N/C(CSC(N)=O)=N\S(=O)(=O)c2ccc(C)cc2)cc1` it was 13.9%; in that of `CC(=O)OC1OCCOC1NC(=S)Nc1cccc(C(F)(F)F)c1` (centres unmarked), 16.7%. As for `NC(=O)CNC(=O)[C@@H]1CC2(CC(c3cccc([N+](=O)[O-])c3)=NO2)CN1C(=O)c1ccccc1` (some centres unmarked), the figure is 12.8%; as for `Nc1nc(CN2CCCCCC2)nc(Nc2ccccc2)n1`, -31.9%; as for `Cc1ccccc1OCC(=O)NCCN1CCCC1.Cl`, 3.66%. With `CC(=O)c1ccc(N2CCN(C(C)C(=O)NC3CCCc4ccccc43)CC2)cc1` (centres unmarked), the “hERG current change (%, negative = inhibition) at 1uM” value is on record as -9.57%. In the case of `CNC(=O)Nc1ccc(Cl)cc1` it was 5.01%; in that of `O=C(/C=C/c1ccco1)Oc1cccc2cccnc12`, 4.54%; in that of `C=CCn1c(O)c(C(C)=NC2CC2)c(=O)[nH]c1=O`, 8.55%. `Cc1cc(NC(=O)CSc2nnc(C)o2)no1`: the “hERG current change (%, negative = inhibition) at 1uM” value is 14%. Turning to `Cc1cccc(C(C)(C)C)c1OCCn1ccnc1`, the “hERG current change (%, negative = inhibition) at 1uM” value is on record as 6.51%. As for `CNC(=O)c1c(NC(=O)CCS(=O)(=O)c2ccc(F)cc2)sc(C)c1C`, the figure is 7.75%.

For `O=C(NCCN1CCN(C(=O)NC2CCCCC2)CC1)NC1CCCCC1`, the “hERG current change (%, negative = inhibition) at 1uM” value was 18.3%.

For `FC(F)(F)c1cnc(Sc2ncn[nH]2)c(Cl)c1`, the “hERG current change (%, negative = inhibition) at 1uM” value was determined as 3.28%.

On to `CN(C)c1ccc(CN(C)C2CCCCC2)cc1`, for which the “hERG current change (%, negative = inhibition) at 1uM” value came out at 11.8%. With `Cc1ccc(C)c(C(C)NC(=S)NCc2ccc(F)cc2)c1` (centres unmarked), the “hERG current change (%, negative = inhibition) at 1uM” value was determined as 15.1%. In the case of `CCOC(=O)NC(=O)CSc1nnnn1-c1ccc(C)cc1` it was 6.56%; in that of `O=S(=O)(Cc1ccccc1)N1CCN(c2ncccn2)CC1`, 18.7%; in that of `Cc1c(CC(=O)N2C[C@H]3C[C@@H](C2)c2cccc(=O)n2C3)c(=O)oc2cc3occ(C(C)(C)C)c3cc12`, -56.8%. In the case of `CN(C(=O)CCn1c(=S)oc2ccccc21)c1ccc(F)cc1` it was -3.7%. With `O=C(N/N=C1/CCCc2ccccc21)C(c1ccccc1)c1ccccc1`, the “hERG current change (%, negative = inhibition) at 1uM” value is given as -15.8%.

Regarding `Cc1nnc(NC(=O)CSc2nccn2C)s1`, the “hERG current change (%, negative = inhibition) at 1uM” value is recorded as 7.66%. In the case of `CNC(=O)c1ccc(Nc2nnc(-c3ccc(O)cc3)c3ccccc23)cc1` it was 12.8%; in that of `S=C(NC1CCCC1)NN1CCOCC1`, 7.97%; in that of `CN(CC(=O)Nc1ccccc1Cl)C(=O)CSc1nncn1C`, 10.5%.

For the molecule `CCOc1ccc(-n2c(=O)cc(N3CCN(c4ccc(F)cc4)CC3)[nH]c2=O)cc1`, the “hERG current change (%, negative = inhibition) at 1uM” value was 9%. As to `CCOC(=O)c1ccc(CSc2nnc(-c3ccncc3)n2N)cc1`, the “hERG current change (%, negative = inhibition) at 1uM” value is on record as 7.04%. `CC1CN(S(=O)(=O)c2ccc(C(=O)Nc3ccc(S(=O)(=O)Nc4nccs4)cc3)cc2)CC(C)O1` (centres unmarked): the “hERG current change (%, negative = inhibition) at 1uM” value was 7.33%.

Take `CC(C)(C)CC(=O)NC(=S)NCCc1ccccc1`: the “hERG current change (%, negative = inhibition) at 1uM” value is given as -0.941%.

Consider `Cc1cc(OCCCC(=O)NCc2cccs2)ccc1Cl`, for which the “hERG current change (%, negative = inhibition) at 1uM” value worked out at 15%. In the case of `CCCCN(C(=O)Cn1nnc2ccccc21)C(C(=O)NCCOC)c1ccccc1` (centres unmarked) it was 6.24%. As for `O=S(=O)(ON(c1ccccc1)S(=O)(=O)c1ccccc1)c1ccccc1`, the figure is 7.23%; as for `Cc1ccccc1N=Nc1ccc(O)c2ncccc12`, 14.1%; as for `C/C(=N/OC(=O)c1ccc(Br)cc1)c1ccc(C)cc1`, 16.6%. In the case of `CCOc1ccccc1OCCCCOc1ccccc1F` it was -3.67%; in that of `O=C(O)C(=O)O.OC(CON=C1c2ccccc2-c2ccccc21)CN1CCNCC1` (centres unmarked), 0.0354%. As to `Cc1cc(C)n2[nH]c(=O)c(N=Nc3cccc(Cl)c3)c2n1`, the “hERG current change (%, negative = inhibition) at 1uM” value was found to be 4.83%. As for `CC(Sc1nccn1C)C(=O)Nc1ccc(C(N)=O)cc1` (centres unmarked), the figure is 3.5%; as for `COCc1cc(=O)[nH]c(N2CCN(c3ccccc3OC)CC2)n1`, -1.43%.

Take `Cc1cc(C)c(NC(=S)NC(CO)(CO)CO)c(C)c1`: the “hERG current change (%, negative = inhibition) at 1uM” value came out at 13.9%.

`O=C(CSc1nc(O)cc(=O)[nH]1)C1CC1`: the “hERG current change (%, negative = inhibition) at 1uM” value is listed as 9.55%. Consider `CC(C)(C)c1nnc2sc(SCC(=O)NCc3ccco3)nn2c1=O`, for which the “hERG current change (%, negative = inhibition) at 1uM” value is recorded as -4.7%. Turning to `COc1ccccc1NC(=O)c1ccccc1C(=O)Nc1ccccc1OC`, the “hERG current change (%, negative = inhibition) at 1uM” value stood at 7.94%. As for `O=C(CSc1nc2c(c(=O)[nH]1)CCC2)Nc1cccc(F)c1`, the figure is 6.99%; as for `O=C(NCC1CC1)c1onc(CSc2ccncc2)c1C(=O)NCC1CC1`, 6.62%. In the case of `O=C(C1CCCN1S(=O)(=O)c1cccc2cccnc12)N1CCc2ccccc21` (centres unmarked) it was 4.29%.

For the molecule `Cc1ccc(NC(=O)OC(C)CNC(=O)Oc2cccc(C)c2)cc1` (centres unmarked), the “hERG current change (%, negative = inhibition) at 1uM” value worked out at 13.2%. As for `C/C(=N\NC(=O)c1nnn(-c2nonc2N)c1-c1ccc2c(c1)OCO2)c1ccccc1`, the figure is -0.752%; as for `CCOC(=O)c1cc(NC(=O)C2C3C=CC(O3)C2C(=O)O)cc(C(=O)OCC)c1` (centres unmarked), 4.41%.

For the molecule `COc1ccc(/C=N/n2c(-c3n[nH]c4c3CCC4)n[nH]c2=S)cc1OC`, the “hERG current change (%, negative = inhibition) at 1uM” value is recorded as 18.8%. Turning to `Cc1cc(C)n(C(C)n2nc(C)cc2C)n1`, the “hERG current change (%, negative = inhibition) at 1uM” value is reported as 13.7%.

Take `Cc1ccc(/C=N/NC(=O)C2(C)CC2(Br)Br)cc1` (centres unmarked): the “hERG current change (%, negative = inhibition) at 1uM” value worked out at 9.02%. Turning to `Cc1cccc(NC(=O)C2CCN(C(=O)c3ccccc3C)CC2)n1`, the “hERG current change (%, negative = inhibition) at 1uM” value is reported as -1.28%.

Regarding `Cc1cc(C(=O)COC(=O)CC2Sc3ccccc3NC2=O)c(C)n1-c1ccc2c(c1)OCO2` (centres unmarked), the “hERG current change (%, negative = inhibition) at 1uM” value is listed as 6.53%. `CC(=O)Oc1ccc(NC(=O)Cc2ccccc2)c(C(=O)O)c1`: the “hERG current change (%, negative = inhibition) at 1uM” value turned out to be 5.02%.

Source of the values: article PMC4336329 (PLoS ONE, 2015).
